{
  "source": "paper PMC4336329",
  "about": "(PLoS ONE, 2015)",
  "note": "Out of some 310,000 compounds screened, about 2,200 (0.71%) showed an effect of 50% or more. Effects have a minus sign here. Some of the results follow.",
  "data": [
    {"target": "human ether-à-go-go-related gene (hERG) potassium channel (human, UniProt Q12809)", "sequence (Q12809 whole entry, looked up)": "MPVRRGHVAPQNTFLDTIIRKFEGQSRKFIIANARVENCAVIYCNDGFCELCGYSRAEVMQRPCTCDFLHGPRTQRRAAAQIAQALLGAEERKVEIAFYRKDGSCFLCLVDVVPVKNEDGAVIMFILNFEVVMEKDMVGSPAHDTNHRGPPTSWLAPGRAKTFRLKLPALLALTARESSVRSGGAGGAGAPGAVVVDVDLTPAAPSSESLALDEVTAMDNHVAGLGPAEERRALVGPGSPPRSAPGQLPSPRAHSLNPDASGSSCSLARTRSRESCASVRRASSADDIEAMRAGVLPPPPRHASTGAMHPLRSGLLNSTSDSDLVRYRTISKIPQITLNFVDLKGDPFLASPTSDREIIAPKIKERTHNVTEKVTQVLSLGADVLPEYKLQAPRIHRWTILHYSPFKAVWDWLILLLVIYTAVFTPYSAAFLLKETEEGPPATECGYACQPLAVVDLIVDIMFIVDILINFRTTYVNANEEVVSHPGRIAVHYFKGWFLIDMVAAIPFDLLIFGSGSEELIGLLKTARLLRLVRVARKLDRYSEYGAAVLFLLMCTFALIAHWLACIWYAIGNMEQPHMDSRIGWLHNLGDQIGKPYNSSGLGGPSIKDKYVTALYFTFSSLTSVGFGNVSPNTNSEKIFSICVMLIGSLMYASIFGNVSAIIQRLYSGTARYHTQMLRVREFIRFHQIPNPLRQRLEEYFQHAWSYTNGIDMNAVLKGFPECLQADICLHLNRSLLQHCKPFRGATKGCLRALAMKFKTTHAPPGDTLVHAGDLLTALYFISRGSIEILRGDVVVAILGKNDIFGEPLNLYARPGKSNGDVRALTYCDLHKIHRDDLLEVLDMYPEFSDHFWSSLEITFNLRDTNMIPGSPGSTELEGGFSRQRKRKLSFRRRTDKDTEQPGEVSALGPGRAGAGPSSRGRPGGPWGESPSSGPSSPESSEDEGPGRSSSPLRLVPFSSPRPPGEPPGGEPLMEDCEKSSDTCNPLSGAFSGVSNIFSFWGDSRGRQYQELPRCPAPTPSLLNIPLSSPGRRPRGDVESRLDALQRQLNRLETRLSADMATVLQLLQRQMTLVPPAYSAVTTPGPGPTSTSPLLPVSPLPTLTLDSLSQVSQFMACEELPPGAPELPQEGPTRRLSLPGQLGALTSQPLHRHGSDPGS", "assay": "primary screen, population patch clamp on CHO cells stably expressing hERG", "units": {"hERG current change (%, negative = inhibition) at 1uM": "%"}, "values": [
      {"smiles": "CC(C)CC(=O)C1=C(O)C(=O)N(Cc2ccccc2)C1c1ccccc1", "note": "(centres unmarked)", "hERG current change (%, negative = inhibition) at 1uM": 15.8},
      {"smiles": "Cc1ccc(/C([O-])=C(/C(=S)NCc2ccc3c(c2)OCO3)[n+]2ccc(N(C)C)cc2)c(C)c1", "hERG current change (%, negative = inhibition) at 1uM": 4.82},
      {"smiles": "Cc1cccc(C)c1Nc1nnc(SCc2cn3cccc(C)c3n2)s1", "hERG current change (%, negative = inhibition) at 1uM": -1.37},
      {"smiles": "Cc1noc(C)c1CC(=O)NC1CC(C)(C)Cc2c1cnn2-c1ccccc1", "note": "(centres unmarked)", "hERG current change (%, negative = inhibition) at 1uM": 15},
      {"smiles": "Br.N=C1c2ccccc2CN1NC(=O)c1ccc(Cl)cc1", "hERG current change (%, negative = inhibition) at 1uM": 9.65},
      {"smiles": "CC(Oc1ccc(Cl)cc1Cl)C(=O)NC1CCSC1=O", "note": "(centres unmarked)", "hERG current change (%, negative = inhibition) at 1uM": -1.23},
      {"smiles": "COCCNC(=O)/C(C#N)=C/c1ccc(-c2ccc(S(=O)(=O)N3CCOCC3)cc2)o1", "hERG current change (%, negative = inhibition) at 1uM": -5.96},
      {"smiles": "O=[N+]([O-])c1ccc(-c2nnc(-c3ccccc3)c(NCCCO)n2)cc1", "hERG current change (%, negative = inhibition) at 1uM": -12.1},
      {"smiles": "Cc1ccc(Cn2cccc(-c3nc4ccccc4s3)c2=O)cc1", "hERG current change (%, negative = inhibition) at 1uM": 9.36},
      {"smiles": "C=CCn1c(CSCc2ccc(F)cc2)n[nH]c1=S", "hERG current change (%, negative = inhibition) at 1uM": 11},
      {"smiles": "CCc1noc(C)c1C(=O)NCCc1ccc(S(N)(=O)=O)cc1", "hERG current change (%, negative = inhibition) at 1uM": 14.9},
      {"smiles": "CCOC(=O)N1CCC(N2CCN(S(=O)(=O)CC)CC2)CC1.O=C(O)C(=O)O", "hERG current change (%, negative = inhibition) at 1uM": 6.91},
      {"smiles": "Cc1ccc(CN2CCN(/N=C/c3ccc(C)s3)CC2)c(C)c1", "hERG current change (%, negative = inhibition) at 1uM": 3.66},
      {"smiles": "CCOC(=O)c1c(C)[nH]c(C(=O)COC(=O)/C=C/c2ccc(O)c(OC)c2)c1C", "hERG current change (%, negative = inhibition) at 1uM": 7.7},
      {"smiles": "O=C(NCc1ccc2c(c1)OCO2)C1CC(c2ccc(Cl)c(Cl)c2)=NO1", "note": "(centres unmarked)", "hERG current change (%, negative = inhibition) at 1uM": 11.2},
      {"smiles": "COc1ccc(-c2nc(C)ncc2-c2csc(C)n2)c(O)c1", "hERG current change (%, negative = inhibition) at 1uM": 12},
      {"smiles": "CC(C)Cc1nc2oc3c(Cl)ncnc3c2c2c1CCC2", "hERG current change (%, negative = inhibition) at 1uM": -4.68},
      {"smiles": "COc1ccc(N2CCN(C(=O)CSc3nnc4c(C)cc5cc(C)ccc5n34)CC2)cc1", "hERG current change (%, negative = inhibition) at 1uM": 3.46},
      {"smiles": "O=C(Nc1ccccc1C(=O)Nc1ccccn1)c1ccc([N+](=O)[O-])cc1", "hERG current change (%, negative = inhibition) at 1uM": -6.3},
      {"smiles": "CN(C)Cc1cc(C(C)(C)c2cc(CN(C)C)c(O)c(CN(C)C)c2)cc(CN(C)C)c1O", "hERG current change (%, negative = inhibition) at 1uM": 0.44},
      {"smiles": "CC(=O)OC1CC2(C)/C(=N\\O)CCC2C2CCc3cc(O)ccc3C12.CCO", "note": "(centres unmarked)", "hERG current change (%, negative = inhibition) at 1uM": 0.0879},
      {"smiles": "CCOc1ccccc1C1C(C(N)=O)=C(C)Nc2nc(-c3cccc(C)c3)nn21", "note": "(centres unmarked)", "hERG current change (%, negative = inhibition) at 1uM": 7.25},
      {"smiles": "CCOC(=O)Cc1cc(=O)[nH]c(=O)[nH]1", "hERG current change (%, negative = inhibition) at 1uM": 9.73},
      {"smiles": "O=C(CCC1CCCN(C(=O)Cn2cnnn2)C1)NCc1ccc(F)c(F)c1", "note": "(centres unmarked)", "hERG current change (%, negative = inhibition) at 1uM": 5.32},
      {"smiles": "CC(C)c1nnc(NC(=O)C2CCCN2C(=O)Nc2ccccc2F)s1", "note": "(centres unmarked)", "hERG current change (%, negative = inhibition) at 1uM": 8.97},
      {"smiles": "Cc1cccc(NS(=O)(=O)c2ccc(C(=O)NCCCN3CCCC3=O)cc2)c1C", "hERG current change (%, negative = inhibition) at 1uM": 11.8},
      {"smiles": "O=C(CN1C(=O)NC(Cc2ccccc2)C1=O)Nc1ccccc1OC(F)F", "note": "(centres unmarked)", "hERG current change (%, negative = inhibition) at 1uM": 1.65},
      {"smiles": "Cn1c(C(=O)N2CCCc3ccccc32)cc2c(=O)n3ccccc3nc21", "hERG current change (%, negative = inhibition) at 1uM": 1.34},
      {"smiles": "Cc1nnc(NC(=O)c2ccccc2-c2ccccc2C(=O)O)s1", "hERG current change (%, negative = inhibition) at 1uM": 6.34},
      {"smiles": "Cc1ccc(NC(=O)C2CC(=O)N(Cc3ccccc3)C2)cc1S(=O)(=O)N1CCCCCC1", "note": "(centres unmarked)", "hERG current change (%, negative = inhibition) at 1uM": -0.853},
      {"smiles": "Cc1cccc(CSCCNC(=O)Nc2ccccc2)c1", "hERG current change (%, negative = inhibition) at 1uM": 1.59},
      {"smiles": "COc1ccc(N2CCN(C(=O)CN3C(=O)c4ccccc4S3(=O)=O)CC2)cc1", "hERG current change (%, negative = inhibition) at 1uM": 16},
      {"smiles": "Cc1cc(/C=C2\\SC(N)=NC2=O)c(C)n1-c1ccccc1", "hERG current change (%, negative = inhibition) at 1uM": 13.4},
      {"smiles": "CCOc1cc(-n2cnnn2)c(OCC)cc1NC(=O)c1cnccn1", "hERG current change (%, negative = inhibition) at 1uM": 11.1},
      {"smiles": "Nc1nc2ccc(C(=O)N3CCCCC3)cc2s1", "hERG current change (%, negative = inhibition) at 1uM": 8.66},
      {"smiles": "CC(NCc1ccc2c(c1)OCO2)C(=O)NC1CCCCC1.O=C(O)C(=O)O", "note": "(centres unmarked)", "hERG current change (%, negative = inhibition) at 1uM": 21.5},
      {"smiles": "CN(Cc1nc(Cc2ccccc2F)no1)CC1(N2CCOCC2)CCCCC1", "hERG current change (%, negative = inhibition) at 1uM": -1.12},
      {"smiles": "Clc1ccccc1OCc1nc(-c2ccncc2)no1", "hERG current change (%, negative = inhibition) at 1uM": 2.87},
      {"smiles": "CCN(CC)CCCNC(=O)CCn1nc(-c2ccccc2)ccc1=O", "hERG current change (%, negative = inhibition) at 1uM": -4},
      {"smiles": "COc1cc(C(=S)N2CCCCC2)ccc1O", "hERG current change (%, negative = inhibition) at 1uM": 21},
      {"smiles": "CC(=O)c1cccc(NC(=O)CCCOc2ccc(C)cc2)c1", "hERG current change (%, negative = inhibition) at 1uM": 8.46},
      {"smiles": "Cc1nc2n(n1)C(O)c1cc([N+](=O)[O-])ccc1S2", "note": "(centres unmarked)", "hERG current change (%, negative = inhibition) at 1uM": 3.4},
      {"smiles": "COc1ccc(-c2nc3ccccc3c(=O)n2CCCn2ccnc2)cc1", "hERG current change (%, negative = inhibition) at 1uM": -18.4},
      {"smiles": "COc1ccccc1CNC(=O)c1c(-c2ccccc2)nn(-c2ccccc2)c1C", "hERG current change (%, negative = inhibition) at 1uM": 0.118},
      {"smiles": "COc1cccc(-n2ccnc2SCC(=O)Nc2ccccc2)c1", "hERG current change (%, negative = inhibition) at 1uM": 6.19},
      {"smiles": "Cc1cccc(C(=O)Nc2nnc(SCC(=O)NC3CC3)s2)c1", "hERG current change (%, negative = inhibition) at 1uM": 13.9},
      {"smiles": "Cc1cc(N2CCN(c3ccccc3)CC2)nc(NCc2ccccc2)n1", "hERG current change (%, negative = inhibition) at 1uM": 11.2},
      {"smiles": "CCN1C(=O)C(CC(=O)N2CCN(C(c3ccccc3)c3ccccc3)CC2)N(CC)C1=O", "note": "(centres unmarked)", "hERG current change (%, negative = inhibition) at 1uM": 7.42},
      {"smiles": "O=C1CCCN1CCCNc1nc2c(S(=O)(=O)c3ccccc3)nnn2c2ccc(Cl)cc12", "hERG current change (%, negative = inhibition) at 1uM": 1.08},
      {"smiles": "COc1ccc(C=O)cc1COc1c(F)c(F)cc(F)c1F", "hERG current change (%, negative = inhibition) at 1uM": 9.41},
      {"smiles": "O=C(CN1CCN(S(=O)(=O)c2ccc(F)c(F)c2)CC1)Nc1ccccc1C(=O)NC1CC1", "hERG current change (%, negative = inhibition) at 1uM": -23.7},
      {"smiles": "CCOC(=O)c1ccc(NC(=O)N2CCN(Cc3cccc(F)c3)CC2)cc1", "hERG current change (%, negative = inhibition) at 1uM": 0.624},
      {"smiles": "CC(C)CN(C(=O)Cn1nnc(-c2ccc(F)cc2)n1)C1CCS(=O)(=O)C1", "note": "(centres unmarked)", "hERG current change (%, negative = inhibition) at 1uM": 7.89},
      {"smiles": "CCC1CCCCN1C(=S)Nc1ccc(SC(F)F)cc1", "note": "(centres unmarked)", "hERG current change (%, negative = inhibition) at 1uM": -17.1},
      {"smiles": "O=C(NCCCn1ccnc1)C1CC2CCC1C2", "note": "(centres unmarked)", "hERG current change (%, negative = inhibition) at 1uM": -0.331},
      {"smiles": "Cc1cccc(C(=O)NCC(=O)NC2CCN(Cc3ccccc3)CC2)c1", "hERG current change (%, negative = inhibition) at 1uM": 15.2}
    ]}
  ]
}
